Some of the results follow. Single values are uncertain, as repeats are few or missing.
These molecules were tested on WM115 (assay: cell count relative to DMSO control; melanoma cells; higher = more viable cells). Details: library dose: standard library concentration; 72 h.
With C[C@@H]1CCN(C(=O)CC#N)C[C@@H]1N(C)c1ncnc2[nH]ccc12 + Oc1nc(-c2ccc(C(F)(F)F)cc2)nc2c1CSCC2 [XAV939] (first compound 5 µM, partner dose 10 µM) the cell count was 88.9%.
Work on O=C(Nc1cccc(Cl)c1)Nc1ncc(CCNc2ncnc3ccsc23)s1 + CCCCCCCCCCCC1=C(O)C(=O)C=C(O)C1=O [Embelin] (first compound 0.004 µM, partner dose 6 µM) yielded a cell count of 46.4%.
Work on COc1cc(Nc2ncc(F)c(Nc3ccc4c(n3)NC(=O)C(C)(C)O4)n2)cc(OC)c1OC [Tamatinib] + O=C(Nc1ccccc1)c1cc([N+](=O)[O-])ccc1Cl [GW9662] (first compound 2 µM, partner dose 10 µM) yielded a cell count of 66.1%.
Cn1cncc1[C@@](N)(c1ccc(Cl)cc1)c1ccc2c(c1)c(-c1cccc(Cl)c1)cc(=O)n2C [tipifarnib] + N#Cc1c(O)c2c(-c3ccc(-c4ccccc4O)cc3)csc2[nH]c1=O [A769662] (first compound 0.05 µM, partner dose 10 µM) was tested, and the cell count was 75.8%.
O=C(Nc1cccc(Cl)c1)Nc1ncc(CCNc2ncnc3ccsc23)s1 + COc1cc(N2CCC(N3CCN(C)CC3)CC2)ccc1Nc1ncc(Cl)c(Nc2ccccc2S(=O)(=O)C(C)C)n1 [NVP-TAE684] (first compound 0.004 µM, partner dose 0.4 µM) was tested, and the cell count was 44.6%.

These molecules were tested on WM1716 in the same assay as above. Details: library dose: standard library concentration; 72 h.
With CC1(C)NC(=O)N(c2ccc([N+](=O)[O-])c(C(F)(F)F)c2)C1=O [nilutamide] + CCc1ccc(CCOc2ccc(CC3SC(=O)NC3=O)cc2)nc1 [pioglitazone] (first compound 5 µM, partner dose 10 µM) the cell count was 107%.
Molecule O=C(Nc1cccc(Cl)c1)Nc1ncc(CCNc2ncnc3ccsc23)s1 + CC(C)CCN1c2nc(Nc3cc(F)c(O)c(F)c3)ncc2N(C)C(=O)C1C [BID1870] (first compound 0.004 µM, partner dose 1 µM) has a cell count of 32.1%.
Work on COc1cc(Nc2ncc(F)c(Nc3ccc4c(n3)NC(=O)C(C)(C)O4)n2)cc(OC)c1OC [Tamatinib] + N#Cc1c(O)c2c(-c3ccc(-c4ccccc4O)cc3)csc2[nH]c1=O [A769662] (first compound 2 µM, partner dose 10 µM) yielded a cell count of 85.3%.
O=C(Nc1cccc(Cl)c1)Nc1ncc(CCNc2ncnc3ccsc23)s1 + COC(=O)c1sccc1S(=O)(=O)Nc1ccc(Nc2ccccc2)cc1OC [GSK0660] (first compound 0.004 µM, partner dose 5 µM) was tested, and the cell count was 44.7%.
For O=C(Nc1cccc(Cl)c1)Nc1ncc(CCNc2ncnc3ccsc23)s1 + c1cc(-c2cnn3cc(-c4ccc(OCCN5CCCCC5)cc4)cnc23)ccn1 [Dorsomorphin] (first compound 0.004 µM, partner dose 2 µM), the cell count was 52.3%.
CC1(C)NC(=O)N(c2ccc([N+](=O)[O-])c(C(F)(F)F)c2)C1=O [nilutamide] + COc1ccc2c(c1)CCC1C2CCC2(C)C(NCCCCCCN3C(=O)C=CC3=O)CCC12 [U73122] (first compound 5 µM, partner dose 2 µM) was tested, and the cell count was 96.6%.
O=C(Nc1cccc(Cl)c1)Nc1ncc(CCNc2ncnc3ccsc23)s1 + Oc1cc(-c2nc(-c3ccccc3)[nH]c2-c2ccncc2)ccc1Cl [L779450] (first compound 0.004 µM, partner dose 1 µM) gave a cell count of 55%.
CC1(C)NC(=O)N(c2ccc([N+](=O)[O-])c(C(F)(F)F)c2)C1=O [nilutamide] + Cc1cc([N+](=O)[O-])ccc1NS(=O)(=O)c1cc(Cl)ccc1Cl [FH535] (first compound 5 µM, partner dose 5 µM) was tested, and the cell count was 72.9%.
With O=C(O)c1ccc(-c2c[nH]c3ncc(-c4ccccc4)cc23)cc1C1CCCC1 + CC(C)CCN1c2nc(Nc3cc(F)c(O)c(F)c3)ncc2N(C)C(=O)C1C [BID1870] (first compound 0.8 µM, partner dose 1 µM) the cell count was 61.7%.
Work on Cn1cncc1[C@@](N)(c1ccc(Cl)cc1)c1ccc2c(c1)c(-c1cccc(Cl)c1)cc(=O)n2C [tipifarnib] + COc1cc(N2CCC(N3CCN(C)CC3)CC2)ccc1Nc1ncc(Cl)c(Nc2ccccc2S(=O)(=O)C(C)C)n1 [NVP-TAE684] (first compound 0.05 µM, partner dose 0.4 µM) yielded a cell count of 62%.
O=C(O)c1ccc(-c2c[nH]c3ncc(-c4ccccc4)cc23)cc1C1CCCC1 + COc1ccc2c(c1)CCC1C2CCC2(C)C(NCCCCCCN3C(=O)C=CC3=O)CCC12 [U73122] (first compound 0.8 µM, partner dose 2 µM) showed a cell count of 76.1%.
For C[C@@H]1CCN(C(=O)CC#N)C[C@@H]1N(C)c1ncnc2[nH]ccc12 + O=C(O)C(=O)Nc1sc2c(c1C(=O)O)CCNC2 [TCS401] (first compound 5 µM, partner dose 8.33333 µM), the cell count was 104%.
C[C@@H]1CCN(C(=O)CC#N)C[C@@H]1N(C)c1ncnc2[nH]ccc12 + CCCCCCCCCCCC1=C(O)C(=O)C=C(O)C1=O [Embelin] (first compound 5 µM, partner dose 6 µM) was tested, and the cell count was 93%.
Work on O=C(Nc1cccc(Cl)c1)Nc1ncc(CCNc2ncnc3ccsc23)s1 + COc1ccc(COc2ccc(Cc3cnc(N)nc3N)cc2OC)cc1 [GW2580] (first compound 0.004 µM, partner dose 5 µM) yielded a cell count of 51.3%.
With COc1cc(Nc2ncc(F)c(Nc3ccc4c(n3)NC(=O)C(C)(C)O4)n2)cc(OC)c1OC [Tamatinib] + COc1ccc2c(c1)CCC1C2CCC2(C)C(NCCCCCCN3C(=O)C=CC3=O)CCC12 [U73122] (first compound 2 µM, partner dose 2 µM) the cell count was 82.6%.
In the case of C[C@@H]1CCN(C(=O)CC#N)C[C@@H]1N(C)c1ncnc2[nH]ccc12 + O=C(Nc1ccccc1)c1cc([N+](=O)[O-])ccc1Cl [GW9662] (first compound 5 µM, partner dose 10 µM), the cell count is reported as 84.3%.
Work on C[C@@H]1CCN(C(=O)CC#N)C[C@@H]1N(C)c1ncnc2[nH]ccc12 + CC(C)CCN1c2nc(Nc3cc(F)c(O)c(F)c3)ncc2N(C)C(=O)C1C [BID1870] (first compound 5 µM, partner dose 1 µM) yielded a cell count of 141%.
In the case of O=C(O)c1ccc(-c2c[nH]c3ncc(-c4ccccc4)cc23)cc1C1CCCC1 + Oc1cc(-c2nc(-c3ccccc3)[nH]c2-c2ccncc2)ccc1Cl [L779450] (first compound 0.8 µM, partner dose 1 µM), the cell count is reported as 62.2%.
In the case of Cn1cncc1[C@@](N)(c1ccc(Cl)cc1)c1ccc2c(c1)c(-c1cccc(Cl)c1)cc(=O)n2C [tipifarnib] + O=S(=O)(c1ccccc1)N(CC(F)(F)F)c1ccc(C(O)(C(F)(F)F)C(F)(F)F)cc1 [T0901317] (first compound 0.05 µM, partner dose 7 µM), the cell count is reported as 86.7%.
Molecule CC1(C)NC(=O)N(c2ccc([N+](=O)[O-])c(C(F)(F)F)c2)C1=O [nilutamide] + O=S(=O)(c1ccccc1)N(CC(F)(F)F)c1ccc(C(O)(C(F)(F)F)C(F)(F)F)cc1 [T0901317] (first compound 5 µM, partner dose 7 µM) has a cell count of 95%.
For O=C(Nc1cccc(Cl)c1)Nc1ncc(CCNc2ncnc3ccsc23)s1 + COc1ccc(-c2ccc3c(N4CCOCC4)nc(N4C[C@@H](C)O[C@@H](C)C4)nc3n2)cc1CO [KU0063794] (first compound 0.004 µM, partner dose 0.1 µM), the cell count was 56.6%.
In the case of CC1(C)NC(=O)N(c2ccc([N+](=O)[O-])c(C(F)(F)F)c2)C1=O [nilutamide] + CCCCCCCCCCCC1=C(O)C(=O)C=C(O)C1=O [Embelin] (first compound 5 µM, partner dose 6 µM), the cell count is reported as 92%.
Work on COc1cc(Nc2ncc(F)c(Nc3ccc4c(n3)NC(=O)C(C)(C)O4)n2)cc(OC)c1OC [Tamatinib] + COc1cc(N2CCC(N3CCN(C)CC3)CC2)ccc1Nc1ncc(Cl)c(Nc2ccccc2S(=O)(=O)C(C)C)n1 [NVP-TAE684] (first compound 2 µM, partner dose 0.4 µM) yielded a cell count of 11.2%.
COc1cc(Nc2ncc(F)c(Nc3ccc4c(n3)NC(=O)C(C)(C)O4)n2)cc(OC)c1OC [Tamatinib] + Cc1cc([N+](=O)[O-])ccc1NS(=O)(=O)c1cc(Cl)ccc1Cl [FH535] (first compound 2 µM, partner dose 5 µM) gave a cell count of 50.9%.
CC1(C)NC(=O)N(c2ccc([N+](=O)[O-])c(C(F)(F)F)c2)C1=O [nilutamide] + COc1ccc(-c2ccc3c(N4CCOCC4)nc(N4C[C@@H](C)O[C@@H](C)C4)nc3n2)cc1CO [KU0063794] (first compound 5 µM, partner dose 0.1 µM) was tested, and the cell count was 102%.
O=C(O)c1ccc(-c2c[nH]c3ncc(-c4ccccc4)cc23)cc1C1CCCC1 + COc1cc(N2CCC(N3CCN(C)CC3)CC2)ccc1Nc1ncc(Cl)c(Nc2ccccc2S(=O)(=O)C(C)C)n1 [NVP-TAE684] (first compound 0.8 µM, partner dose 0.4 µM) showed a cell count of 78.2%.
For Cn1cncc1[C@@](N)(c1ccc(Cl)cc1)c1ccc2c(c1)c(-c1cccc(Cl)c1)cc(=O)n2C [tipifarnib] + CCCCCCCCCCCC1=C(O)C(=O)C=C(O)C1=O [Embelin] (first compound 0.05 µM, partner dose 6 µM), the cell count was 72.5%.

Reference: the supplement of paper PMC4604168 (melanoma cell lines)
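Note: cells treated in 1,536-well plates, then fixed and DAPI-stained, with nuclei counted from automated high-throughput microscope images.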
